Laboratory results from the CheMixHub viscosity set.
“And” between values parts separate entries of the source, which are not always exact repeats. Equal entries are not always repeated. This continues a long series; more values of the same kind are listed elsewhere.

Legend:
[1] = xn = mol fraction of the nth substance listed

CN(C)C=O
viscosity
Conditions	293.15 K	298 K	298.15 K	303.15 K	308.15 K	313.15 K	318.15 K	323.15 K
100 kPa	0.867 mPa·s	–	0.813 mPa·s	0.764 mPa·s	0.717 mPa·s	–	0.663 mPa·s	0.63 mPa·s
101 kPa	0.863 mPa·s and 0.854 mPa·s	–	0.802 mPa·s and 0.808 mPa·s	0.733 mPa·s and 0.7566 mPa·s	0.7217 mPa·s and 0.7171 mPa·s	0.6831 mPa·s and 0.64 mPa·s	0.646 mPa·s and 0.597 mPa·s and 0.6423 mPa·s	0.6128 mPa·s and 0.6093 mPa·s
101.3 kPa	–	0.796 mPa·s	0.8024 mPa·s and 0.92 mPa·s	–	–	–	–	–
101.33 kPa	–	–	0.796 mPa·s and 0.802 mPa·s and 0.802 mPa·s	0.7675 mPa·s and 0.737 mPa·s and 0.7485 mPa·s	0.722 mPa·s	0.671 mPa·s and 0.6683 mPa·s	0.635 mPa·s and 0.633 mPa·s	0.6004 mPa·s

OCCOCCOCCO + CN(C)C=O
[1], 318.15 K, 101 kPa
Conditions	viscosity [mPa·s]
x1 = 0.1726	1.38
x1 = 0.2077	1.59
x1 = 0.245	1.85
x1 = 0.2848	2.14
x1 = 0.3274	2.5
x1 = 0.373	2.92
x1 = 0.422	3.44
x1 = 0.4748	4.11
x1 = 0.5318	4.91
x1 = 0.5935	5.85
x1 = 0.6607	7.08
x1 = 0.7339	8.59
x1 = 0.8141	10.5
x1 = 0.9024	13

OCCOCCOCCO + CS(C)=O
[1], 318.15 K, 100 kPa
Conditions	viscosity [mPa·s]
x1 = 0.1822	2.82
x1 = 0.2192	3.19
x1 = 0.2575	3.59
x1 = 0.3003	4.08
x1 = 0.3422	4.58
x1 = 0.3888	5.16
x1 = 0.4385	5.84
x1 = 0.4915	6.58
x1 = 0.5521	7.49
x1 = 0.6114	8.41
x1 = 0.6754	9.46
x1 = 0.7463	10.7
x1 = 0.8233	12.1
x1 = 0.9083	13.6

O=[N+]([O-])[O-].[Na+] + O
viscosity [mPa·s], [1]
Conditions	298.15 K	323.15 K
100 kPa, x1 = 0.00475	0.9042	0.5613
100 kPa, x1 = 0.00898	0.9164	0.5738
100 kPa, x1 = 0.0118	0.9256	0.5817
100 kPa, x1 = 0.02481	0.9737	0.6151
100 kPa, x1 = 0.03655	–	0.6616
100 kPa, x1 = 0.0509	1.139	0.7283
100 kPa, x1 = 0.08286	1.43	0.8995
100 kPa, x1 = 0.1015	1.629	1.022
101.33 kPa, x1 = 0.000905	–	0.5655
101.33 kPa, x1 = 0.002718	–	0.5705
101.33 kPa, x1 = 0.00453	–	0.5784
101.33 kPa, x1 = 0.006344	–	0.5858
101.33 kPa, x1 = 0.008159	–	0.5986

OCCOCCOCCO + O
[1], 308.15 K, 101.33 kPa
Conditions	viscosity [mPa·s]
x1 = 0.5032	17.45
x1 = 0.5991	19.29
x1 = 0.6914	20.45
x1 = 0.7941	21.78
